From publication PMC4336329 (PLoS ONE, 2015)
Hit rate of the full screen: of about 310,000 compounds, about 14,000 (4.5%) showed an effect of 50% or more. Effects have a minus sign here. This is one part of the list. Where a SMILES comes first, the peptide text is derived from it. The star is where a group is joined. Cbz = O=C(OCc1ccccc1)*

The molecules below were run against human ether-à-go-go-related gene (hERG) potassium channel (human, UniProt Q12809) (assay: primary screen, population patch clamp on CHO cells stably expressing hERG).
Chain of human ether-à-go-go-related gene (hERG) potassium channel (Q12809 whole entry, looked up): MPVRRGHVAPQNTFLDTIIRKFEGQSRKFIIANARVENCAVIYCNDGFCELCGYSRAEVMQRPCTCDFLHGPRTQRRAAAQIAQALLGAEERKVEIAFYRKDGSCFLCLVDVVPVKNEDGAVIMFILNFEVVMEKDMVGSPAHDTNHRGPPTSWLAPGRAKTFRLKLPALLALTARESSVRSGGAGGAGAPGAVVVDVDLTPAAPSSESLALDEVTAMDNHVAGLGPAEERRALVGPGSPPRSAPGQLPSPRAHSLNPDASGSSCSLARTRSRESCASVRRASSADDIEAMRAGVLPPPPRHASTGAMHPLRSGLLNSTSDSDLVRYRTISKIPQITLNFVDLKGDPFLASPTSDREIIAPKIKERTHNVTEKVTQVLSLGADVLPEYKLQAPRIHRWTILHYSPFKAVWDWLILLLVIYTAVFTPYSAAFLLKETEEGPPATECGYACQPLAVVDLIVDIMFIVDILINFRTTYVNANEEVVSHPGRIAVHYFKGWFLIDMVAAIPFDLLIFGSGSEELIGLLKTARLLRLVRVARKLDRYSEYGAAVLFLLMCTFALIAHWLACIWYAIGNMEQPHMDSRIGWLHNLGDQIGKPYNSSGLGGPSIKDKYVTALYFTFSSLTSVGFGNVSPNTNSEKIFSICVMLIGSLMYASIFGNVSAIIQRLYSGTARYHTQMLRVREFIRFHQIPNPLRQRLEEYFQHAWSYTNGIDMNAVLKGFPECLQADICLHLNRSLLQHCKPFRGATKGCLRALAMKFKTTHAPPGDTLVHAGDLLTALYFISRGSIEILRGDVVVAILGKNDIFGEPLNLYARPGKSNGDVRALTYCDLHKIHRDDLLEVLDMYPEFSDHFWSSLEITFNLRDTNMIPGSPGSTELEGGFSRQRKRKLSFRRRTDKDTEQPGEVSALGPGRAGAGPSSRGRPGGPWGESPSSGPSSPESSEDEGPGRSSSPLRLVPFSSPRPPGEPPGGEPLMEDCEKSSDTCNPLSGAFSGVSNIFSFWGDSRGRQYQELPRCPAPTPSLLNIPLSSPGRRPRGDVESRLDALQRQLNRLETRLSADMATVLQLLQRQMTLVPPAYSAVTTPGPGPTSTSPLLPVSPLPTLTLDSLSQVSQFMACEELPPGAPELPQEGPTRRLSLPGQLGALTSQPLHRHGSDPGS
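Note: peak tail current of the secondary pulse compared with the same well before compound.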

Question: `COc1cc([C@@H]2CC=C(C(=O)O)[C@H](c3ccc(F)cc3)N2S(=O)(=O)c2ccc(C)cc2)cc(OC)c1OC` was tested. Which “hERG current change (%, negative = inhibition) at 10uM” value did it give?
Answer: Its value is 10.7%.

Question: For `Cc1cccc(Cn2c(Sc3nc(C)cs3)nc3c2c(=O)[nH]c(=O)n3C)c1`, which “hERG current change (%, negative = inhibition) at 10uM” value is on record?
Answer: Its value is -1.99%.

Question: `CS(=O)(=O)N1CCC(C(=O)c2cccc(Cl)c2)CC1` was tested. Which “hERG current change (%, negative = inhibition) at 10uM” value did it give?
Answer: Its value is -0.907%.

Question: With `Cc1c(C(=O)N2CCOCC2)sc(NC(=O)Cc2ccccc2)c1C#N` as the molecule, how does the “hERG current change (%, negative = inhibition) at 10uM” value read?
Answer: The value was -8.42%.

Question: Which “hERG current change (%, negative = inhibition) at 10uM” value does the source give for `COc1cccc(C2CCN(CC(=O)Nc3cc(Cl)ccc3OC)CC2O)c1` (centres unmarked) here?
Answer: Its value is 9.52%.

Question: How did the “hERG current change (%, negative = inhibition) at 10uM” value turn out when `CC(C)c1ccc(N(CC(=O)N2CCN(Cc3ccccc3)CC2)S(C)(=O)=O)cc1` was run?
Answer: The value was -3.3%.

Question: For `Cc1ccc(F)cc1NC(=O)COC(=O)C1CCN(c2ccc(C(F)(F)F)cn2)CC1`, which “hERG current change (%, negative = inhibition) at 10uM” value is on record?
Answer: Its value is 20.8%.

Question: How did the “hERG current change (%, negative = inhibition) at 10uM” value turn out when `O=[N+]([O-])c1ccc(-c2cnc3ccccc3n2)cc1` was run?
Answer: The value was 8.3%.

Question: `CCOC(=O)CC1(CC(=O)OCC)NC(=O)c2c(C)sc(C(=O)OCC)c2N1` was tested. Which “hERG current change (%, negative = inhibition) at 10uM” value did it give?
Answer: The value was 7.04%.

Question: `CCOC(=O)c1c(S(=O)(=O)NCC(=O)Nc2cc(C)ccc2OC)c(C)n(C)c1C` was tested. Which “hERG current change (%, negative = inhibition) at 10uM” value did it give?
Answer: The value was 10.3%.

Question: How did the “hERG current change (%, negative = inhibition) at 10uM” value turn out when `Cc1c(Cl)cnc(NC(=O)CSc2nncs2)c1Cl` was run?
Answer: The value was -9.24%.

Question: Which “hERG current change (%, negative = inhibition) at 10uM” value does the source give for `CC(=O)Nc1cccc(C(=O)OCc2ccc([N+](=O)[O-])cc2)c1` here?
Answer: The value was -39.4%.

Question: With `CC1CC(C)CN(C(=O)Cn2nnc(-c3ccccc3)n2)C1` (centres unmarked) as the molecule, how does the “hERG current change (%, negative = inhibition) at 10uM” value read?
Answer: The value was -33.5%.

Question: How did the “hERG current change (%, negative = inhibition) at 10uM” value turn out when `CCOc1ccc(C(=O)Nc2ccc(S(=O)(=O)Nc3cc(C)on3)cc2)cc1` was run?
Answer: The value was -9.73%.

Question: How did the “hERG current change (%, negative = inhibition) at 10uM” value turn out when `Cc1ccc(S(=O)(=O)/N=C2/NC(=O)/C(=C/c3ccc(Br)o3)S2)cc1` was run?
Answer: Its value is 24%.

Question: How did the “hERG current change (%, negative = inhibition) at 10uM” value turn out when `Nc1cc(=O)[nH]c(SCC(=O)Nc2cccc([N+](=O)[O-])c2)n1` was run?
Answer: Its value is 11.3%.

Question: Which “hERG current change (%, negative = inhibition) at 10uM” value does the source give for `COc1ccc(NC(=S)N/N=C/c2cccn2Cc2ccc(F)cc2)cc1` here?
Answer: Its value is 19.8%.

Question: Which “hERG current change (%, negative = inhibition) at 10uM” value does the source give for `CC(=O)Nc1ccc(S(=O)(=O)N2CCSC2c2ccccc2Cl)cc1` (centres unmarked) here?
Answer: Its value is 9.43%.

Question: `CC1CCc2nc(NC(=O)CN3CCOCC3)sc2C1` (centres unmarked) was tested. Which “hERG current change (%, negative = inhibition) at 10uM” value did it give?
Answer: The value was -4.5%.

Question: Which “hERG current change (%, negative = inhibition) at 10uM” value does the source give for `Cc1ccc(C)c(NS(=O)(=O)c2ccc(-c3cnc(C4CC4)o3)cc2)c1` here?
Answer: Its value is 4.27%.

Question: `Cc1ccccc1C(=O)Nc1ccc(-c2nnc(SC(C)C(=O)O)n2C)cc1` (centres unmarked) was tested. Which “hERG current change (%, negative = inhibition) at 10uM” value did it give?
Answer: The value was 24.8%.

Question: With `O=C(NNc1cccc(Cl)n1)Nc1ccc(F)cc1` as the molecule, how does the “hERG current change (%, negative = inhibition) at 10uM” value read?
Answer: The value was 9.8%.

Question: For `Cc1ccc(-c2nn(-c3ccccc3)cc2/C=N/O)cc1`, which “hERG current change (%, negative = inhibition) at 10uM” value is on record?
Answer: Its value is 18.6%.

Question: How did the “hERG current change (%, negative = inhibition) at 10uM” value turn out when `COCCN1CCC(CNCc2cn[nH]c2-c2ccc(C)c(C)c2)C1` (centres unmarked) was run?
Answer: The value was -3.39%.

Question: For `Cc1nc(N)sc1-c1nnc(SCC(=O)Nc2nccs2)n1C`, which “hERG current change (%, negative = inhibition) at 10uM” value is on record?
Answer: Its value is -12.6%.

Question: Which “hERG current change (%, negative = inhibition) at 10uM” value does the source give for `C[C@H](NC(=O)OCc1ccccc1)C(=O)N[C@@H](Cc1c[nH]c2ccccc12)C(=O)O` (Cbz-Ala-Trp-OH) here?
Answer: Its value is 3.65%.

Question: Which “hERG current change (%, negative = inhibition) at 10uM” value does the source give for `CCCCC1=CC2=CC(=O)C(C)(OC(=O)CC)C(=O)C2=CN1c1ccc(OC)cc1` (centres unmarked) here?
Answer: The value was -13%.

Question: For `CCSc1nc(-c2ccco2)ccc1C#N`, which “hERG current change (%, negative = inhibition) at 10uM” value is on record?
Answer: Its value is -0.262%.

Question: With `CN(C(=O)CN1C(=O)/C(=C/c2ccccc2F)SC1=S)C1CCS(=O)(=O)C1` (centres unmarked) as the molecule, how does the “hERG current change (%, negative = inhibition) at 10uM” value read?
Answer: The value was 20.3%.

Question: For `O=C(O)c1cc(N2C(=O)C3C4C=CC(C4)C3C2=O)ccc1NCc1cccnc1` (centres unmarked), which “hERG current change (%, negative = inhibition) at 10uM” value is on record?
Answer: Its value is -4.64%.

Question: How did the “hERG current change (%, negative = inhibition) at 10uM” value turn out when `COC(=O)c1ccccc1C(=O)N1CCC(CCC(=O)NC2CC2)CC1` was run?
Answer: The value was 10.9%.

Question: For `COc1ccc(-n2nnnc2CNC(=O)c2ccc3c(c2)OCO3)cc1`, which “hERG current change (%, negative = inhibition) at 10uM” value is on record?
Answer: Its value is 13.9%.

Question: With `COc1ccc2c(C)cc(C)nc2n1` as the molecule, how does the “hERG current change (%, negative = inhibition) at 10uM” value read?
Answer: The value was -0.339%.

Question: For `COCc1cc(=O)[nH]c2c1c(-c1ccccc1)nn2C`, which “hERG current change (%, negative = inhibition) at 10uM” value is on record?
Answer: The value was 12.7%.

Question: Which “hERG current change (%, negative = inhibition) at 10uM” value does the source give for `Cc1cc(=O)n2nc(N3CCCC3C(=O)Nc3ccccc3C)sc2n1` (centres unmarked) here?
Answer: The value was 6.27%.

Question: How did the “hERG current change (%, negative = inhibition) at 10uM” value turn out when `c1cnc2ccc(C(c3nnnn3C3CCCCC3)N3CCN4CCCC4C3)cc2c1` (centres unmarked) was run?
Answer: Its value is -109%.

Question: For `Cc1ccc(OCC(=O)Nc2c(C)ccc3nsnc23)cc1`, which “hERG current change (%, negative = inhibition) at 10uM” value is on record?
Answer: Its value is -12.8%.

Question: `CCC(C)N(C(=O)COC(=O)CNC(=O)c1ccccc1F)C1CCS(=O)(=O)C1` (centres unmarked) was tested. Which “hERG current change (%, negative = inhibition) at 10uM” value did it give?
Answer: Its value is 4.36%.

Question: Which “hERG current change (%, negative = inhibition) at 10uM” value does the source give for `c1ccc(-c2cn3cccnc3n2)cc1` here?
Answer: Its value is 5%.

Question: For `COc1ccc(S(=O)(=O)Nc2ncccc2C)c2ccccc12`, which “hERG current change (%, negative = inhibition) at 10uM” value is on record?
Answer: Its value is 16.7%.

Question: How did the “hERG current change (%, negative = inhibition) at 10uM” value turn out when `CCCCNC(C(=O)Nc1cccc(S(=O)(=O)N2CCOCC2)c1)c1ccccc1` (centres unmarked) was run?
Answer: Its value is -50.7%.

Question: For `CCOc1ccc(N(C)S(=O)(=O)c2ccc(C)c(C(=O)NCc3ccccc3OC)c2)cc1`, which “hERG current change (%, negative = inhibition) at 10uM” value is on record?
Answer: Its value is -6.23%.

Question: With `COc1ccc(C(=O)CSc2nnc(-c3cccnc3)n2Cc2ccco2)cc1` as the molecule, how does the “hERG current change (%, negative = inhibition) at 10uM” value read?
Answer: Its value is -42.9%.

Question: How did the “hERG current change (%, negative = inhibition) at 10uM” value turn out when `CCC1(C)Cc2c(sc3nc(SC)n(Cc4ccccc4)c(=O)c23)CO1` (centres unmarked) was run?
Answer: Its value is 6.63%.
